Data taken from publication PMC12772503.
These are yes or no findings as the source states them, for the method shown. Binding seen in cells or lysates may run through a third protein. Some entries that bind do so weakly or less than the wild type. Where a sequence is shown, tags or fusion partners need not be part of it. Blank lines part the entries; values can stand above or below the substance they belong to.

Amino acid sequences for entries named in this document (tags omitted). A change or cut given only in a name is not applied to a line headed by its entry.
UniProt P46824: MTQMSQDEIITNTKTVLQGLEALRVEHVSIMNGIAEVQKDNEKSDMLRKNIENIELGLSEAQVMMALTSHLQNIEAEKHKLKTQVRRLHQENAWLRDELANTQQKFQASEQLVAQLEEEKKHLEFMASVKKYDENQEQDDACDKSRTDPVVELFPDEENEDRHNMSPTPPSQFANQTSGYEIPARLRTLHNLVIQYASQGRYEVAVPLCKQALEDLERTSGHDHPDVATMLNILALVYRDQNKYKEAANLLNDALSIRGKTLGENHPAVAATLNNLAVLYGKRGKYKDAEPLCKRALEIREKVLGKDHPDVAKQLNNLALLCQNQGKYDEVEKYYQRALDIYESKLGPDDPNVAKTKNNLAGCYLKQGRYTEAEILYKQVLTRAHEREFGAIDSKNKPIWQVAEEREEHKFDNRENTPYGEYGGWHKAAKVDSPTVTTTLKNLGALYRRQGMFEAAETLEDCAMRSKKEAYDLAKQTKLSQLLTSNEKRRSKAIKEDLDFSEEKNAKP
UniProt O18333: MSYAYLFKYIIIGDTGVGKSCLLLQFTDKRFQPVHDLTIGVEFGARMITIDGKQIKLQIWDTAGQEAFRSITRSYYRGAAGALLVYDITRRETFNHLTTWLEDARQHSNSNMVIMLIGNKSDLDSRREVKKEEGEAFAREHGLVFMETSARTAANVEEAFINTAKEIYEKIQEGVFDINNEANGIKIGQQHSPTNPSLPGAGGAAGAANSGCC

Experiments:
[1] = target: T1, myc-Syd-N2 (Syd^1-529) (Drosophila) (UniProt Q9GQF1); experiment: co-IP; lysates (1.0 mg/ml) of transfected HEK293 cells on Pierce anti-HA magnetic beads, 2 h, 4°C; 20 mM HEPES pH 7.4, 130 mM NaCl, 2 mM MgCl2, 0.1% saponin; 60 uM GppNHp with Rab2(wt) and Rab2[Q65L] but not Rab2[S20N]; eluted with 100 mM NaOH or HA peptide; Western blot; in Fig. S2 E cells treated with 2 uM MLi-2 for 2 h or co-transfected with LRRK2^G2019S
T1 sequence: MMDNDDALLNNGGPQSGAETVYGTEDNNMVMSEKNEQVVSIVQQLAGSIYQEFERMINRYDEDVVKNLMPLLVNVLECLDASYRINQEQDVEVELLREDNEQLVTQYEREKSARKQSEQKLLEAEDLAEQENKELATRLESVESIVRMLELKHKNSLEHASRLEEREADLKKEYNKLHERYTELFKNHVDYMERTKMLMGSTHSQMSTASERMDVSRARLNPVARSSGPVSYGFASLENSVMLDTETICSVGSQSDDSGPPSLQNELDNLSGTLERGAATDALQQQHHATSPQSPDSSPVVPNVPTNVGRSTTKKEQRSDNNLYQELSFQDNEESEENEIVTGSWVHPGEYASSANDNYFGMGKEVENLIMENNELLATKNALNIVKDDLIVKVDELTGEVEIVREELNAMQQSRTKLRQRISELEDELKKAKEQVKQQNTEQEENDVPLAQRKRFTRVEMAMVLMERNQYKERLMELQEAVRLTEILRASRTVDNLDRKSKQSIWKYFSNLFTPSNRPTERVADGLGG

[2] = target: T1, myc-Syd-N2 (Syd^1-529) (Drosophila); experiment: co-IP; lysates (1.0 mg/ml) of transfected HEK293 cells on Pierce anti-c-Myc magnetic beads, 2 h, 4°C; 20 mM HEPES pH 7.4, 130 mM NaCl, 2 mM MgCl2, 0.1% saponin, 60 uM GppNHp; washes with 0.25% then 0.1% saponin; eluted by heating in SDS-PAGE loading buffer; Western blot
[3] = target: T2, myc-tagged dNischarin (Drosophila) (UniProt Q7K490); experiment: as above
T2 sequence: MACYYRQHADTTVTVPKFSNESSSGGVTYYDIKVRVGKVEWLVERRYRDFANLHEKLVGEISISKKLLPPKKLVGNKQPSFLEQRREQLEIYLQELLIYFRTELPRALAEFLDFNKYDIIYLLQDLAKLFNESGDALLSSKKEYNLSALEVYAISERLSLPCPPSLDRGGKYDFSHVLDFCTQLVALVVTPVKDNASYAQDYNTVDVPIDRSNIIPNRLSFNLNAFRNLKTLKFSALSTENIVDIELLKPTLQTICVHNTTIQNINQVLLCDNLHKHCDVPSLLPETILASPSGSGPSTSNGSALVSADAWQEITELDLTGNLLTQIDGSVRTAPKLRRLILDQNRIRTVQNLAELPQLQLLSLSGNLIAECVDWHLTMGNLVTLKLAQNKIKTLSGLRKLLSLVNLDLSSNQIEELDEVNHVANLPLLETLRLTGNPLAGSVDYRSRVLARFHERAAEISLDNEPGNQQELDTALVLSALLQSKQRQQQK

[4] = target: T3, myc-tagged full-length Syd (Drosophila) (UniProt Q9GQF1); experiment: as above
T3 sequence: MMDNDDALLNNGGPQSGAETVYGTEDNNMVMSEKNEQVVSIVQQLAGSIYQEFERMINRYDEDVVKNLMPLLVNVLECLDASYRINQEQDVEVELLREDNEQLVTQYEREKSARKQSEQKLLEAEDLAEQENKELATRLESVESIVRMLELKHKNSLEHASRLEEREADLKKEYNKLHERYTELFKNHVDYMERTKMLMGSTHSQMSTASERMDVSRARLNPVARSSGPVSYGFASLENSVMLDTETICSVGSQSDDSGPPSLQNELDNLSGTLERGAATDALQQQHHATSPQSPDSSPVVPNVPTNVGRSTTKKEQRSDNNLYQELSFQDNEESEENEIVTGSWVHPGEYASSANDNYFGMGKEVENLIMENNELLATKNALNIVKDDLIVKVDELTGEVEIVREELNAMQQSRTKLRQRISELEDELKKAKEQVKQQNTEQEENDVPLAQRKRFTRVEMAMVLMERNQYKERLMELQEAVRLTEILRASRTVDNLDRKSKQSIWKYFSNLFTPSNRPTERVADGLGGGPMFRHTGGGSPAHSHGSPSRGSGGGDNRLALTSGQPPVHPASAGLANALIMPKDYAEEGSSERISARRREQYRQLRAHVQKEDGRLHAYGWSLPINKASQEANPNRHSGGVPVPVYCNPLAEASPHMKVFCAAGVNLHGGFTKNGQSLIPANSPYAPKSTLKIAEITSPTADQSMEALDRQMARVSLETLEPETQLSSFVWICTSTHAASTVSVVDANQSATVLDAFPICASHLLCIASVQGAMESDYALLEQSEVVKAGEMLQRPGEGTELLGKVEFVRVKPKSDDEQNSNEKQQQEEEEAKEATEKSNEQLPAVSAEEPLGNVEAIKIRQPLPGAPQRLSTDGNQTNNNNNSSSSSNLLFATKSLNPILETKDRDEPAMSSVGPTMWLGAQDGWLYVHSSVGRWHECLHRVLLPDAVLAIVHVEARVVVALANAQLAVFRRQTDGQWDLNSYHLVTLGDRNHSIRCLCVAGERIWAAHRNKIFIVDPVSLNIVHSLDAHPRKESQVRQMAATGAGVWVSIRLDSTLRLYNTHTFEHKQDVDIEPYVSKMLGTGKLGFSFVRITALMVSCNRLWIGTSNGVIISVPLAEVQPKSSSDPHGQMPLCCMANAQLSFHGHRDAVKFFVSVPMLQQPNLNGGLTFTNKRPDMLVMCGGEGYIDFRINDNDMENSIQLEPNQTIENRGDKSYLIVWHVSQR

[5] = target: T4, HA-Syd-N2 (Syd^1-529) (Drosophila) (UniProt Q9GQF1); experiment: co-IP; lysates (1.0 mg/ml) of transfected HEK293 cells on Pierce anti-HA magnetic beads, 2 h, 4°C; 20 mM HEPES pH 7.4, 130 mM NaCl, 2 mM MgCl2, 0.1% saponin; 60 uM GppNHp with Rab2(wt) and Rab2[Q65L] but not Rab2[S20N]; eluted with 100 mM NaOH or HA peptide; Western blot; in Fig. S2 E cells treated with 2 uM MLi-2 for 2 h or co-transfected with LRRK2^G2019S
T4 sequence: T1 sequence

[6] = target: T5, HA-Syd-N4 (Syd^1-485) (Drosophila) (UniProt Q9GQF1); experiment: as above
T5 sequence: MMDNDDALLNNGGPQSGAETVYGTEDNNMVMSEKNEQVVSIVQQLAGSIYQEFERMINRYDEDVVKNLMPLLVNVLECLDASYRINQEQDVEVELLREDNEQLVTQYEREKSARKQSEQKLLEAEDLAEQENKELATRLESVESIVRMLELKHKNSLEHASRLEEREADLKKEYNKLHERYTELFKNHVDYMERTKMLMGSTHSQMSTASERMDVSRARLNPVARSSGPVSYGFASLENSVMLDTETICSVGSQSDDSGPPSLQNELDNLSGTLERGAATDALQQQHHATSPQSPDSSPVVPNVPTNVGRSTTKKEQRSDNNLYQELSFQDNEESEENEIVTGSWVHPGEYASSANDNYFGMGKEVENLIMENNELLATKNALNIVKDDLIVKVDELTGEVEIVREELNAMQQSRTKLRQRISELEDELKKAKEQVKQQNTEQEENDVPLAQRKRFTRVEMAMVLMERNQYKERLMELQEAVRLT

binding [1]: binds
Substance: FLAG-tagged Klc (from UniProt P46824 1-508)

binding [2]: binds
binding [3]: binds weakly
binding [4]: binds
Substance: HA-Rab2^Q65L (from UniProt O18333 1-213)

binding [5]: binds
binding [6]: no binding
Substance: myc-Rab2^Q65L (from UniProt O18333 1-213)
